Results published in PubChem BioAssay AID463173 (ICCB-Longwood Screening Facility, Harvard Medical School, 2010).
Screen size: about 52,000 compounds; about 1,700 (3.3%) were called active. Cut-off read from the data, not from the text of the source: active = survival mostly below about 52% (no sharp cut-off); inactive = mostly above about 56%. This is one part of the list.

These compounds were tested on Wild type (assay: growth inhibition of S. aureus wild type versus tarO mutant, primary screen, teichoic acid synthesis inhibitors, RN4220, OD600 (AID 463173)). Conditions: S. aureus RN4220 wild type/DeltatarO growth, OD600, 18 h, hits give low values, screened at 18.75 µg/mL (by protocol).

SMILES | survival
CCCCC12CN3CC(C)(CN(C1)C3c1cc(Br)ccc1O)C2=O (stereo not given) | inactive: 89%
COc1ccc(NC(=O)c2ccc3nc(CCc4ccccc4)oc3c2)cc1 | inactive: 124%
COc1ccccc1NC(=O)C1CCCN(c2nnc(C)c3c(C)n(-c4ccccc4)nc23)C1 (stereo not given) | inactive: 82%
COc1ccc(NC(=O)C(NC(=O)c2ccccc2NC(=O)c2ccco2)C(C)C)cc1 (stereo not given) | inactive: 110%
CS(=O)(=O)c1ccc2nc(NC(=O)CS(=O)(=O)c3ccc(Cl)cc3)sc2c1 | inactive: 73%
CCOC(=O)CNC(=O)Nc1cc(C(=O)NCc2cccc(F)c2)ccc1N1CCCC1 | inactive: 81%
O=C(NCC(c1cccnc1)N1CCc2ccccc21)c1ccccc1Br (stereo not given) | inactive: 78%
Cc1ccc(N2CCN(c3nc4ccc(C)cc4n4nnnc34)CC2)c(C)c1 | inactive: 76%
Cc1ccc(NC2=C(c3ccc(C(F)(F)F)cc3)C(=O)c3ccccc32)cc1F | inactive: 67%
COc1cccc(C2C3CN(C(C)=O)CC=C3C(C#N)=C(N)C2(C#N)C#N)c1 (stereo not given) | inactive: 100%
CCOc1ccccc1NC(=O)CSc1nc2ccccc2c2nc(CCn3cncc3C)nn12 | inactive: 125%
CCOc1cc(C(=O)Nc2ccc(-c3nc4cc(C)ccc4o3)cc2)cc(OCC)c1OCC | inactive: 49%
O=C(Nc1ccc2nc(SCC(=O)N3CCCC3)sc2c1)c1ccccc1 | inactive: 86%
COc1cc2c(-c3ccccc3C)nc3c(c(C)nn3-c3ccccc3)c2cc1OC | inactive: 40%
CCCN(CCC)C(=O)Cn1c(=O)n(-c2cccc(C(F)(F)F)c2)c(=O)c2c(C)c(C)sc21 | inactive: 83%
O=C(Cn1c(=O)n(Cc2ccco2)c(=O)c2cccnc21)Nc1ccccc1F | inactive: 78%
Cc1ccc(OCC(=O)Nc2c(C(=O)c3ccccc3)oc3ccccc23)cc1C | inactive: 85%
CCc1ccc(NC(=O)CC2C(=O)N(c3cccc(C)c3)C(=O)N2Cc2cccs2)cc1 (stereo not given) | active: -3%
Cc1ccc(S(=O)(=O)Nc2nc(O)c(C3=c4ccccc4=NC3=O)s2)cc1 | inactive: 103%
CCOC(=O)c1noc2nc(C)n(CC(=O)Nc3cc(Cl)ccc3OC)c(=O)c12 | inactive: 120%
COc1cc(C(=O)Nc2ccc3nn(-c4ccc(F)cc4)nc3c2)cc(OC)c1OC | inactive: 84%
CCCCn1c(=O)n(-c2ccc(Br)cc2F)c(=O)c2c3c(sc21)CN(C(C)=O)CC3 | inactive: 81%
COc1ccc(CNC(=O)Cn2c(SCC(=O)N(C)c3ccccc3)nc3ccccc32)cc1 | inactive: 98%

SMILES | survival
Cc1csc2nc(COC(=O)c3ccc(NC(=O)COc4ccccc4F)cc3)cc(=O)n12 | inactive: 134%
Cc1ccc(CNC(=O)C2CCN(S(=O)(=O)N3CCC(C)CC3)CC2)cc1 | inactive: 77%
Oc1c(C(c2ccccc2)N2CCN(Cc3ccccc3)CC2)sc2nc(-c3ccco3)nn12 (stereo not given) | active: 10%
COc1ccccc1CNC(=O)C(=O)NCC(c1cccs1)S(=O)(=O)c1ccc(F)cc1 (stereo not given) | inactive: 99%
CC1=C(C(=O)OCC2CCCCC2)C(c2ccc(F)cc2F)CC(=O)N1 (stereo not given) | inactive: 85%
COc1cc(Cl)c(C)cc1NC(=O)CCc1nc2cccnc2n1-c1ccccc1 | inactive: 84%
COc1ccc(NC(=O)Cn2c(SCc3cccc(Cl)c3)nc3ccncc32)c(OC)c1OC | inactive: 65%
CC1=C(C(=O)Nc2ccccc2)C(c2ccccc2)n2nc(-c3ccco3)nc2N1 (stereo not given) | inactive: 87%
CC(=O)Nc1nnc(SCc2cc(=O)c3cc(C)ccc3[nH]2)s1 | inactive: 73%
CCCCNC(=O)C1CCN(S(=O)(=O)c2cc(Br)cc3c2N(C(=O)CC)CC3)CC1 | inactive: 97%
Cn1c(=O)cc(SCC(=O)NCc2ccc(F)cc2)c2ccc(Cl)cc21 | inactive: 81%
COc1ccc(-c2nnc(SCC(=O)Nc3cccc(F)c3)s2)cc1 | inactive: 70%
Cc1ccc(NCc2cccn2-c2nnc(N3CCCCCC3)s2)cc1 | inactive: 77%
CCOc1ccccc1NC(=O)C(C)Sc1cc(-c2ccccc2)nc(C)n1 (stereo not given) | inactive: 78%
O=C1CCN(Cc2ccccc2)C(=S)N1 | inactive: 95%
COC(=O)C1=CN(C2CC2)C=C(C(=O)OC)C1c1ccsc1 | inactive: 110%
Cc1nc(-c2ccc(F)cc2)sc1CCNC(=O)C(=O)Nc1ccc2c(c1)OCCO2 | inactive: 80%
OCCN(CCO)c1ncnc2c1cnn2-c1ccc(F)cc1 | active: 1%
COC(=O)c1cc(-c2ccc(C)cc2)c2c(=O)n(C)c(=O)n(C)c2n1 | inactive: 105%
COc1ccccc1C(=O)Oc1ccc(C(c2c(C)[nH][nH]c2=O)c2c(C)[nH][nH]c2=O)cc1 | inactive: 83%
Nc1ncnc2nc(SCCO)[nH]c12 | inactive: 106%
COc1ccc(CC(=O)Nc2ccc(-c3nc4ccccc4s3)c(C)c2)cc1OC | active: 10%
COc1ccc2oc(=O)c(C(=O)N3CCN(c4ccc(C)cc4)CC3)cc2c1 | inactive: 74%

SMILES | survival
COc1ccc(-c2cc(C(F)(F)F)nc(NCCc3ccccc3)n2)cc1OC | inactive: 81%
Cc1csc2nc(COC(=O)c3ccccc3NC(=O)c3ccc(C(C)(C)C)cc3)cc(=O)n12 | inactive: 55%
COc1cccc(CNC(=O)c2cc(S(=O)(=O)N3CCCCC3)c[nH]2)c1 | inactive: 83%
CSc1nn(Cc2ccc(C)cc2)c(N)c1S(=O)(=O)c1ccccc1 | inactive: 67%
COc1ccc(-c2cc(C(=O)Nc3c(C)n(C)n(-c4ccccc4)c3=O)no2)cc1OC | inactive: 78%
O=C(CCCn1c(=O)c2cccn2c2ccccc21)NCCc1ccc(Cl)cc1 | inactive: 31%
CCOC(=O)c1c(NC(=O)C2c3ccccc3Oc3ccccc32)sc(C)c1C | inactive: 21%
CCOc1ccc(C(=O)OC(C)CN2CCCCC2)cc1 (stereo not given) | inactive: 103%
CCOc1cccc2sc(N(Cc3cccnc3)C(=O)c3ccc(C#N)cc3)nc12 | inactive: 89%
Cc1c(CC(=O)NCc2ccc(F)cc2)c(=O)oc2cc(O)c(Cl)cc12 | inactive: 76%
COc1ccc(NC(=O)CC2NCCNC2=O)c(OC)c1 (stereo not given) | inactive: 75%
O=C(NCc1ccccc1Cl)c1ccc2oc(=O)n(Cc3ccccc3)c2c1 | inactive: 81%
Cc1cc(C)n(-c2nc3ccccc3nc2N2CCN(c3cccc(C(F)(F)F)c3)CC2)n1 | inactive: 88%
Cc1cccc(-n2nc(C)c(C(=O)Nc3cc(C)ccc3C)c2-n2cccc2)c1 | inactive: 66%
CCN1C(=O)/C(=C\C=C2/N(CC)c3ccc(C(=O)OC)cc3N2CC)SC1=S | inactive: 96%
O=C(Nc1nncs1)Oc1ccccc1 | inactive: 105%
Cc1ccc(-n2c(SCc3ccccc3)nc3c([nH]c4ccccc43)c2=O)cc1 | inactive: 72%
CCN(CC)C(=O)O[n+]1ccccc1C(C)C | inactive: 113%
O=C(Nc1ccc(-c2nc3cc(Cl)ccc3o2)cc1)c1cc2ccccc2o1 | inactive: 82%
COc1ccc(CNC(=O)c2ccc3nc(-c4ccc(F)cc4)c(-c4ccc(F)cc4)nc3c2)cc1 | inactive: 80%
Cc1nnc(NC(=O)c2ccccc2)s1 | inactive: 71%
CCC1(C)Cc2c(sc3nc(SC)n(-c4ccc(C)cc4)c(=O)c23)CO1 (stereo not given) | inactive: 57%
Cc1ccc(NC(=O)c2ccccc2Br)c(C(=O)c2ccccc2)c1 | inactive: 25%

SMILES | survival
Nc1nc(-c2ccco2)nn1S(=O)(=O)c1ccccc1 | inactive: 93%
Cc1cc(NC(=O)CCNS(=O)(=O)c2cccc3nsnc23)ccc1Br | inactive: 123%
COc1ccc(Cn2c(SCc3ccc(C(=O)NC(C)c4ccccc4)cc3)nc3cccnc32)cc1 (stereo not given) | inactive: 75%
CC1CCN(c2nc3ccc(C(=O)NCc4ccccc4)cc3s2)CC1 | inactive: 74%
Cc1cccc(N2CCN(C(=O)CS(=O)(=O)Cc3nc(-c4ccccc4C)oc3C)CC2C)c1 (stereo not given) | inactive: 54%
CCc1ccc(S(=O)(=O)c2nnn3c2nc(Nc2ccc(NC(C)=O)cc2)c2sccc23)cc1 | inactive: 86%
CCOc1ccc(N(Cc2ccccc2)C(=O)c2nc(S(C)(=O)=O)ncc2Cl)cc1 | inactive: 39%
COc1ccc(OC)c(NC(=O)Cn2c(=O)cc(-c3ccccc3)c3c(C)nn(C)c32)c1 | inactive: 74%
COc1cc(NC(=O)CCCOc2cc(=O)n(C)c3ccccc23)cc(OC)c1OC | inactive: 81%
CCOC(=O)CNC(=O)N1CCN(c2nnc(C)c3c(C)n(-c4ccc(Cl)cc4)nc23)CC1 | inactive: 72%
Cc1cccc(C(=O)N=Nc2c(O)[nH]c3ccc(C)cc23)c1 | inactive: 117%
O=C(O)CCC(=O)Nc1ccncc1 | inactive: 101%
O=S(=O)(NCc1nc2cccnc2n1Cc1ccccc1Cl)c1ccc(F)c(Cl)c1 | inactive: 76%
CC(=O)c1c(C)oc2c1cc(NS(=O)(=O)c1ccc(Cl)c(C)c1)c1ccccc12 | inactive: 76%
COCc1nnc(NC(C)=O)s1 | inactive: 97%
O=C(Nc1ccc(Cl)cc1)C(NS(=O)(=O)c1cccs1)c1ccccc1 (stereo not given) | inactive: 40%
Cc1cccc(OCC(=O)Nc2nnc(S(=O)(=O)N3CCc4ccccc43)s2)c1 | inactive: 25%
Cc1ccc(-n2c(Cc3ccccc3)nnc2SCc2nc(-c3cccs3)no2)cc1C | inactive: 63%
Cc1nc(-c2ccc(C)c(N3CCN(C(=O)Nc4cccc(Cl)c4C)CC3)c2)no1 | inactive: 78%
CCOC(=O)C1CCCN(Cc2cn3c(-c4cccc(Br)c4)nnc3s2)C1 (stereo not given) | inactive: 85%
CCC(C(=O)Nc1cc(F)ccc1F)n1nc(C)c2c(C)n(-c3ccc(C)cc3)nc2c1=O (stereo not given) | inactive: 72%
